B1: coaD L113A (protein)
chain: MQKRAIYPGTFDPITNGHIDIVTRATQMFDHVILAIAASPSKKPMFTLEERVALAQQATAHLGNVEVVGFSDLMANFARNQHATVLIRGLRAVADFEYEMQLAHMNRHLMPEAESVFLMPSKEWSFISSSLVKEVARHQGDVTHFLPENVHQALMAKLA
B2: coaD L34W (protein)
chain: B1 chain with L34W, A113L
B3: coaD I33D (protein)
chain: B1 chain with I33D, A113L
B4: coaD L86Q (protein)
chain: B1 chain with L86Q, A113L
B5: coaD I33W (protein)
chain: B1 chain with I33W, A113L
B6: coaD L34A (protein)
chain: B1 chain with L34A, A113L
B7: coaD L34D (protein)
chain: B1 chain with L34D, A113L
B8: coaD L113Q (protein)
chain: B1 chain with A113Q
B9: coaD L86P (protein)
chain: B1 chain with L86P, A113L
B10: coaD I33A (protein)
chain: B1 chain with I33A, A113L
B11: coaD L86A (protein)
chain: B1 chain with L86A, A113L
B12: coaD L34Q (protein)
chain: B1 chain with L34Q, A113L
B13: coaD I33Q (protein)
chain: B1 chain with I33Q, A113L
B14: cdsA L221D (protein)
chain: MLKYRLISAFVLIPVVIAALFLLPPVGFAIVTLVVCMLAAWEWGQLSGFTTRSQRVWLAVLCGLLLALMLFLLPEYHRNIHQPLVEISLWASLGWWIVALLLVLFYPGSAAIWRNSKTLRLIFGVLTIVPFFWGMLALRAWHYDENHYSGAIWLLYVMILVWGADSGAYMFGKLFGKHKLAPKVSPGKTWQGFIGGLATAAVISWGYGMWANLDVAPVTLDICSIVAALASVLGDLTESMFKREAGIKDSGHLIPGHGGILDRIDSLTAAVPVFACLLLLVFRTL
B15: cdsA L236A (protein)
chain: B14 chain with D221L, L236A
B16: cdsA L221P (protein)
chain: B14 chain with D221P
B17: accD V120A (protein)
chain: MSWIERIKSNITPTRKASIPEGVWTKCDSCGQVLYRAELERNLEVCPKCDHHMRMTARNRLHSLLDEGSLVELGSELEPKDVLKFRDSKKYKDRLASAQKETGEKDALVVMKGTLYGMPAVAAAFEFAFMGGSMGSVVGARFVRAVEQALEDNCPLICFSASGGARMQEALMSLMQMAKTSAALAKMQERGLPYISVLTDPTMGGVSASFAMLGDLNIAEPKALIGFAGPRVIEQTVREKLPPGFQRSEFLIEKGAIDMIVRRPEMRLKLASILAKLMNLPAPNPEAPREGVVVPPVPDQEPEA
B18: accD V120Q (protein)
chain: B17 chain with A120Q
B19: accD V120W (protein)
chain: B17 chain with A120W

Substitutions are numbered along the chain they refer to. In names and notes the source's numbering stands. ± gives the standard deviation of the averaged measurements. Laboratory Escherichia coli strains with one amino-acid change in an essential protein, pooled on minimal glucose agar with carbenicillin or gentamicin at twice the control MIC (plus kanamycin and chloramphenicol for the plasmids), 48 h. Fold change of barcode share against drug-free plates; higher = less susceptible. Active = above 20 in both replicates (the paper's putatively resistant). '<' = one read or none on drug, '>' = one read or none on a drug-free plate. Shares are relative, so most strains fall below 1 when a few take over. Listed are strains with at least 15 reads on both drug-free plates, and hits; most hits rest on fewer reference reads. Replicate rank correlation about 0.5. Edits are read from barcodes.

The first series concerns the target Escherichia coli (laboratory strain). The series can be described thus: barcode share on antibiotic plates over drug-free plates; higher = less susceptible. Particulars: antibiotic: carbenicillin; 2× MIC (3.1 µg/mL). As to the method:
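A pool of E. coli strains, each edited to carry one amino-acid change in an essential protein, was grown for 48 h on minimal glucose agar with or without antibiotic; strain barcodes were sequenced; mean of two replicates.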
In the case of B1, the “fold change of barcode share” value came out at 0.231 ± 0.053.

For the protein B2, the “fold change of barcode share” value came to 0.178 ± 0.036.

As to B3, the “fold change of barcode share” value was found to be 0.235 ± 0.2.

For the protein B4, the “fold change of barcode share” value was determined as 10 ± 8.4.

Turning to B5, the “fold change of barcode share” value was 0.33 ± 0.25.

Regarding B6, the “fold change of barcode share” value was 0.323 ± 0.05.

B7: the “fold change of barcode share” value turned out to be 0.184 ± 0.091.

In the case of B8, the “fold change of barcode share” value is 0.275 ± 0.063.

As for B9, the “fold change of barcode share” value was 0.299 ± 0.066.

B10: the “fold change of barcode share” value turned out to be 0.292 ± 0.067.

As to B11, the “fold change of barcode share” value was determined as 0.291 ± 0.054.

Regarding B12, the “fold change of barcode share” value is 0.163 ± 0.022.

Consider B13, for which the “fold change of barcode share” value was determined as 0.268 ± 0.067.

Take B14: the “fold change of barcode share” value is 0.343 ± 0.058.

On to B15, for which the “fold change of barcode share” value amounted to 0.716 ± 0.72.

Take B16: the “fold change of barcode share” value came to 0.246 ± 0.058.

As to B17, the “fold change of barcode share” value stood at 0.48 ± 0.042.

B18: the “fold change of barcode share” value was found to be 0.678 ± 0.24.

On to B19, for which the “fold change of barcode share” value came to 0.555 ± 0.12.

Still in this series, the particulars now being: antibiotic: gentamicin; 2× MIC (MIC 0.45 µg/mL).
B1: the “fold change of barcode share” value was below 0.00618.

Turning to B2, the “fold change of barcode share” value was below 0.00847.

For B3, the “fold change of barcode share” value is below 0.00794.

Take B4: the “fold change of barcode share” value is below 0.00429.

With B5, the “fold change of barcode share” value turned out to be 0.0103 ± 0.0035.

B6: the “fold change of barcode share” value is below 0.0152.

With B7, the “fold change of barcode share” value is below 0.0111.

In the case of B8, the “fold change of barcode share” value is below 0.00561.

Take B9: the “fold change of barcode share” value was below 0.00823.

On to B10, for which the “fold change of barcode share” value was below 0.00546.

Turning to B11, the “fold change of barcode share” value was found to be 0.00392 ± 0.0023.

B12: the “fold change of barcode share” value is below 0.00519.

In the case of B13, the “fold change of barcode share” value is below 0.00932.

With B14, the “fold change of barcode share” value was below 0.0106.

Regarding B16, the “fold change of barcode share” value was determined as 0.00679 ± 0.0042.

For B17, the “fold change of barcode share” value was below 0.00394.

For B18, the “fold change of barcode share” value was 0.00666 ± 0.0011.

These data come from the supplement of paper PMC11876631.
